# Data as given in PubChem BioAssay AID1347165 (National Center for Advancing Translational Sciences (NCATS), 2019).
# Hit rate of the full screen: of about 220,000 compounds, about 5,700 (2.6%) were called active. The shares of active, inactive and inconclusive entries below differ from those in the screen. The call rests on the fitted dose curve; in most records, active means well fitted inhibition curve with a large enough effect; inconclusive means small, poorly fitted or top-dose-only effect; inactive means no such curve, though single readings can be large or run the other way. Where the call is inconclusive, the potency comes from a doubtful curve fit.
# Target: Lysine-specific demethylase 5B (Homo sapiens) (UniProt Q9UGL1)
# Sequence of UniProt Q9UGL1 (Q9UGL1 whole entry, looked up): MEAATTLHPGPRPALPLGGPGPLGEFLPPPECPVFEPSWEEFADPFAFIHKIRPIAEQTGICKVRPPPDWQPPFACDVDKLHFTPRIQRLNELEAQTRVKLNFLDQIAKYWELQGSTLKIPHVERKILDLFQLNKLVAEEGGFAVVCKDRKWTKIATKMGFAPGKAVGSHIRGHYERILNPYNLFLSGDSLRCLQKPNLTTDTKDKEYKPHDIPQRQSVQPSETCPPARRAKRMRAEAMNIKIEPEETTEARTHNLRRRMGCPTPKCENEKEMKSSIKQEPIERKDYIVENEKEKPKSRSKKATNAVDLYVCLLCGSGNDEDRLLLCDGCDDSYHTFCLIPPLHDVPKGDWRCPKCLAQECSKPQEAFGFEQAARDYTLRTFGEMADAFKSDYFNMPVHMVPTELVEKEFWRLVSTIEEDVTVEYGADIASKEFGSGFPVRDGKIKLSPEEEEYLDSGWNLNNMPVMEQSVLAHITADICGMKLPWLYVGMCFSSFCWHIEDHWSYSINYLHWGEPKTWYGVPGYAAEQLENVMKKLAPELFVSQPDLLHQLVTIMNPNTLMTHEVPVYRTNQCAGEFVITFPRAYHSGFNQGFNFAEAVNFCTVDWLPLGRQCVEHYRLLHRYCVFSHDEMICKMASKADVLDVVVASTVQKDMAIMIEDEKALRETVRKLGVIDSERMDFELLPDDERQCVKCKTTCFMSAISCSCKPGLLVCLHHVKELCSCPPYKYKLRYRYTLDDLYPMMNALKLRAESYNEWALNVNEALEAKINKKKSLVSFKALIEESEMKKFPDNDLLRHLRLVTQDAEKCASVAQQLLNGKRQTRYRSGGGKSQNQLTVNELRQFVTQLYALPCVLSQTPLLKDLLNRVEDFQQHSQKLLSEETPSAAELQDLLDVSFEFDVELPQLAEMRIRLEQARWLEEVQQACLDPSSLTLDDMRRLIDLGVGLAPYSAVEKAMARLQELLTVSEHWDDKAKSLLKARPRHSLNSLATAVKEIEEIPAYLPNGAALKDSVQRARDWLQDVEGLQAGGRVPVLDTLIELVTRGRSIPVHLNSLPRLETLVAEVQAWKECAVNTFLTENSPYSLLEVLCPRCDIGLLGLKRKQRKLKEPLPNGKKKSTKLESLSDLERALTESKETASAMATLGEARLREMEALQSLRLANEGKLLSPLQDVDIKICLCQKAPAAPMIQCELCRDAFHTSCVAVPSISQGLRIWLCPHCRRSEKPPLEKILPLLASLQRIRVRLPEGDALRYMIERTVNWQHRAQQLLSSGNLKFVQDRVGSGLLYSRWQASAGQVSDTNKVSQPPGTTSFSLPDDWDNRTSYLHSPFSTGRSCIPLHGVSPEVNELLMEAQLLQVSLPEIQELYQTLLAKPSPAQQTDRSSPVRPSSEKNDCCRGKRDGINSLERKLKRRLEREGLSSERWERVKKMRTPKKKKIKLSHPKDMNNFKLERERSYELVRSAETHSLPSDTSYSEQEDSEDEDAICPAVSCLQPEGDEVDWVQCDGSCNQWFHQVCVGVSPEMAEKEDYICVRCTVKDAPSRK
# Experiment: Primary screen for KDM5B Histone Demethylases FDH-coupled qHTS; further: nearly all actives have a fitted effect of over 70% in size
# Settings: FDH-coupled NADH fluorescence (FDH is formaldehyde dehydrogenase); series mostly up to 57.7 µM
# In short: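 qHTS format, multiple compound concentrations. Buffer 50 mM HEPES pH 7.5/0.01% Tween-20; 200 nM KDM5BΔAP final; 10 min compound preincubation; substrate-mix levels 12.5 µM peptide, 25 µM α-KG, 0.25 mM NAD⁺; 30 min RT; ΔRFU.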
# Potency means the concentration at half of the fitted maximal effect; tags describe the fitted curve by direction and shape.
row,SMILES,Potency
1,CC(=O)N1c2ccc(S(=O)(=O)N(C)CC(=O)NCCc3ccc(Cl)cc3)cc2CC1C (stereo not drawn),"inconclusive: 28.2 µM [inhibitor, single point]"
2,CCn1cc(-c2cc3c(cn2)CN(CCc2ccccc2)CCN3)cn1,active: 35.5 µM
3,O=C(COc1ccc(F)cc1)NC1CCN(c2cc(-c3ccccc3)[nH]n2)CC1,"inconclusive: 25.1 µM [inhibitor, single point]"
4,COC(=O)c1ccoc1COC(=O)CCc1c(C)c2ccc(OC)cc2oc1=O,"inconclusive: 25.1 µM [inhibitor, partial curve, poor fit]"
5,CCCC1CCC(c2ccc(-c3ccc(CC)cn3)cc2)CC1C (stereo not drawn),inactive
6,O=C(NC(CN1CCCC1)c1ccccc1)c1cc2ccccc2oc1=O (stereo not drawn),"inconclusive: 25.1 µM [inhibitor, single point]"
7,Cc1cccc(OCCC(=O)NC(C)c2ccc(F)cc2)c1 (stereo not drawn),inactive
8,COCCNC(=O)CCCN1C(=O)COc2ccc(C(=O)COc3cc(C)cc(C)c3)cc21,"inconclusive: 20 µM [inhibitor, single point]"
9,CC(=O)c1cc(CN2CCCCC(N)C2)cs1 (stereo not drawn),"inconclusive: 28.2 µM [inhibitor, partial curve, poor fit]"
10,Cc1cccc(C(=O)N(C2CCCCC2)C2CCCCC2)c1,inactive
11,CC(C)CC(=O)Nc1ccc2oc(-c3cccc(Cl)c3)nc2c1,inactive
12,O=C(NCCn1ccn2nc(-c3ccc(F)cc3)cc2c1=O)c1ccco1,"inconclusive: 39.8 µM [inhibitor, single point]"
13,O=C(CSc1nc2sc3c(c2c(=O)[nH]1)CCCC3)Nc1ccccc1F,"inconclusive: 25.1 µM [inhibitor, partial curve, poor fit]"
14,COc1ccc(CC(=O)N2CCCN(c3cc(-c4ccccc4)[nH]n3)CC2)cc1,active: 22.4 µM
15,Oc1cccc(C(O)CNC/C=C/c2ccccc2)c1 (stereo not drawn),"inconclusive: 28.2 µM [inhibitor, partial curve, poor fit]"
16,CCN(CC)CCCn1c(-c2ccc(COc3ccc(Cl)cc3Cl)cc2)n[nH]c1=S,inactive
17,O=C(Oc1ccc(/C=N/NC(=O)c2ccccn2)cc1)c1cccc(Br)c1,"inconclusive: 22.4 µM [inhibitor, single point]"
18,COc1ccc(CC(=O)N2CCc3cn(C)c4cccc(c34)C2)cc1,"inconclusive: 28.2 µM [inhibitor, single point]"
19,Cc1ccc(-c2ccc3nnc(CNC(=O)c4ccn[nH]4)n3n2)cc1C,"inconclusive: 3.16 µM [inhibitor, partial curve, poor fit]"
20,COc1ccc(-c2nc(CSCC(=O)NCc3ccc(F)cc3)c(C)o2)cc1OC,"inconclusive: 25.1 µM [inhibitor, single point]"
21,CCOc1cc(C2/C(=C(\O)c3ccc(Cl)cc3)C(=O)C(=O)N2c2cc(C)on2)ccc1O (stereo not drawn),inactive
22,O=c1c2c(n(Cc3cccnc3)n1CCc1ccccc1)CN(Cc1ccc3c(c1)CCO3)CC2,"inconclusive: 39.8 µM [inhibitor, partial curve, poor fit]"

row,SMILES,Potency
1,COc1ccccc1-c1onc(C)c1C(=O)NCCC(c1ccccc1)c1ccccc1,"inconclusive: 28.2 µM [inhibitor, single point]"
2,O=C(CCCc1cccs1)NCc1ccccc1COc1ccccc1,inactive
3,NC(=O)C(Sc1ccc2c(c1)OCCCO2)c1ccccc1 (stereo not drawn),inactive
4,CC(C)NC(=O)c1cccc2c1CCCN2CC(=O)NC1CCCC1,"inconclusive: 10 µM [inhibitor, partial curve, poor fit]"
5,Cc1csc2nc(-c3cccc(NC(=O)c4c(F)cccc4F)c3)cn12,"inconclusive: 1.12 µM [inhibitor, partial curve, poor fit]"
6,COc1cccc(N2CCN(C(=O)c3cc(-c4ccccc4)nc4c3cnn4C(C)C)CC2)c1,"inconclusive: 31.6 µM [inhibitor, single point]"
7,Cc1cnc(CCNC(=O)c2n[nH]c3ccccc23)n1C1CCCC1,"inconclusive: 25.1 µM [inhibitor, single point]"
8,COc1ccc2c(C)c(CC(=O)N3CCCC3)c(=O)oc2c1C,"inconclusive: 2 µM [inhibitor, full curve, poor fit]"
9,O=c1cc(-c2cccnc2)oc2c(-c3ccccc3Oc3ccccc3)nccc12,inactive
10,Cc1cc(C(=O)N2CCC3(CC(=O)Nc4ccccc4N3)C2)ccc1Cl (stereo not drawn),"inconclusive: 100 µM [inhibitor, partial curve, poor fit]"
11,Cc1nn(C(C)(C)C)c(OC(=O)c2c(F)cccc2F)c1Sc1ccccc1,"inconclusive: 2.82 µM [inhibitor, full curve, poor fit]"
12,CC(SC(C)c1ccccc1F)C(=O)NC(N)=O (stereo not drawn),inactive
13,COc1cc(CNc2ccc3[nH]c(=O)[nH]c3c2)cc(Cl)c1OCc1ccc(F)cc1,"inconclusive: 25.1 µM [inhibitor, partial curve, poor fit]"
14,Cn1c2c(c3ccccc31)CN(C(=O)c1ccccc1)CC2,"inconclusive: 25.1 µM [inhibitor, single point]"
15,O=C(N[C@H](CO)c1ccccc1)C1CCC(CNS(=O)(=O)c2ccc(F)cc2)CC1 (stereo partly drawn),inactive
16,O=C(NCC1Cn2cccc2CN1Cc1ccccc1)NC1CCCCC1 (stereo not drawn),active: 28.2 µM
17,O=C(Nc1cccc(C(F)(F)F)c1)O[C@@H]1CO[C@H]2[C@@H]1OC[C@@H]2Nc1nccc(-c2ccc(-c3ccccc3)cc2)n1,"inconclusive: 25.1 µM [inhibitor, partial curve, poor fit]"
18,COc1ccc(-c2ccnc3nc(C(C)C)nn23)cc1,active: 25.1 µM
19,COC(=O)C(CCSC)NC(=O)c1cc2c(n(-c3ccccc3)c1=O)CC(C)(C)CC2=O (stereo not drawn),"inconclusive: 25.1 µM [inhibitor, single point]"
20,CN1C(=O)c2ccccc2Sc2ccc(NC(=O)c3ccc(C#N)cc3)cc21,"inconclusive: 39.8 µM [inhibitor, single point]"
21,CCOC(=O)Cn1c(=O)n(-c2ccc(Cl)cc2)c2nc(-c3ccc(Cl)cc3)nc(C(N)=O)c21,"inconclusive: 1.58 µM [inhibitor, full curve, poor fit]"
